# Some of the results follow. Sequences were assembled here from the parent chain. Values near 0.05 are background.
# B1: TEV protease; numbered along this chain (parent)
# chain: MGESLFKGPRDYNPISSSICHLTNESDGHTTSLYGIGFGPFIITNKHLFRRNNGTLVVQSLHGVFKVKDTTTLQQHLVDGRDMIIIRMPKDFPPFPQKLKFREPQREERICLVTTNFQTKSMSSMVSDTSCTFPSGDGIFWKHWIQTKDGQCGSPLVSTRDGFIVGIHSASNFTNTNNYFTSVPKNFMELLTNQEAQQWVSGWRLNADSVLWGGHKVFMVKPEEPFQPVKEATQL
# Variants of: B1
# Assay: raw area under fraction-flipped curve 0-4 h after induction (AUC4h, not background-subtracted), DNA-recorder readout of cleavage of the substrate (dimensionless); higher = more cleavage of the substrate by the protease variant
# Settings: temperature: 34 °C; time window: 0-4 h after rhamnose induction
# Description: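 In vivo DNA recorder in E. coli TOP10(DE3) ΔrhaA at 34 °C. Each TEVp single-site mutant (parent TEVp 0) is paired with a single-site variant of the 7-mer TEVs (canonical ENLYFQ|S). The substrate sits between flexible linkers in a Bxb1-sfGFP-TEVs-SsrA fusion, so cleavage stabilises Bxb1 and speeds flipping of a recombination array, read by NGS. The value is the raw area under the fraction-flipped curve over 0-4 h after rhamnose induction (AUC4h), with ≥20 reads per time point. It is not background-subtracted; inactive controls average about 0.047.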
# 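Note: Bxb1 expression induced with 0.2% (w/v) L-rhamnose at OD600 near 0.5, cultures sampled hourly, flipped fraction per protease–substrate barcode pair counted by paired-end Illumina sequencing.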
Variant,area with substrate ENLYDQS,area with substrate ENLYEQS,area with substrate ENLYHQS,area with substrate ENLYMQS,area with substrate ENLYNQS,area with substrate ENLYQQS,area with substrate ENLYRQS,area with substrate ENLYTQS,area with substrate ENLYGQS,area with substrate ENLYIQS,area with substrate ENLYKQS,area with substrate ENLYPQS,area with substrate ENLYWQS,area with substrate ENLYYQS,area with substrate ENLYLQS,area with substrate ENLYSQS,area with substrate ENLYVQS
Q227G,0.0277,0.0618,0.0704,0.067,0.0582,0.0567,0.01,0.0839,–,–,–,–,–,–,–,–,–
T132P,–,0.0596,0.0505,0.0665,0.0637,0.0708,0.0668,–,0.0579,0.0603,0.055,0.0464,0.0696,0.0496,–,–,–
W203L,0.0705,0.0569,0.0638,0.0582,–,0.0591,–,–,0.0718,–,0.0538,0.0617,–,–,0.0501,0.0565,0.0502
E223G,0.0461,0.0597,–,–,–,–,–,–,–,–,–,–,–,0.0845,–,–,–
K66T,–,0.0665,0.0482,–,0.0666,–,0.0435,–,0.0672,–,–,–,0.0847,–,–,–,0.123
Q194K,0.0692,0.0659,–,–,–,–,0.0608,–,0.0663,0.147,–,0.0709,–,–,–,–,0.211
E195V,0.0431,–,0.0663,–,–,–,–,–,–,–,0.0231,–,0.0661,–,–,–,–
T147D,0.0643,0.0693,–,–,–,–,–,–,–,–,0.0575,0.0054,0.0635,–,0.0624,–,–
G138D,–,0.0616,0.0633,–,–,0.0667,–,–,0.0625,0.0963,0.0139,0.0667,0.0546,–,–,–,0.111
N193R,0.0677,–,0.0208,–,–,–,–,–,–,–,–,0.0717,–,–,–,–,–
V57D,–,0.051,0.0611,0.105,0.0671,0.0675,0.0554,0.0605,0.0535,0.12,0.0611,0.0619,–,0.0625,–,0.0773,–
I110P,–,0.0595,0.0615,0.0445,–,–,–,0.0689,–,0.0492,0.0565,–,0.058,0.0557,–,–,–
N186C,0.0592,0.0883,0.0816,–,0.0645,–,–,–,–,0.12,0.0253,0.0581,0.0523,–,–,–,–
F6K,–,0.0782,–,0.0682,–,–,–,0.0881,–,–,0.0734,–,–,–,–,–,–
Q59T,–,0.0697,0.0761,–,–,0.0554,0.0693,0.0772,–,0.12,0.0555,0.0707,0.082,–,0.0711,0.0619,–
Q59A,–,0.0705,0.068,–,0.0786,–,0.0686,–,–,–,0.0605,0.0729,0.0907,–,–,0.0843,–
C131R,–,0.0607,0.079,0.0778,–,–,–,–,–,0.0987,–,–,0.0716,–,0.082,–,0.1

Variant,area with substrate ENLYDQS,area with substrate ENLYEQS,area with substrate ENLYHQS,area with substrate ENLYMQS,area with substrate ENLYNQS,area with substrate ENLYQQS,area with substrate ENLYRQS,area with substrate ENLYTQS,area with substrate ENLYGQS,area with substrate ENLYIQS,area with substrate ENLYKQS,area with substrate ENLYPQS,area with substrate ENLYWQS,area with substrate ENLYYQS,area with substrate ENLYLQS,area with substrate ENLYSQS,area with substrate ENLYVQS
G202E,0.061,0.0703,0.0668,0.0473,–,0.0568,0.0547,–,–,–,0.0608,0.06,0.0655,0.0941,0.0651,–,0.0605
P222R,0.0457,0.051,0.0579,0.0693,0.0638,0.0796,–,–,0.0568,0.103,–,–,0.0599,0.0706,0.0699,0.0602,0.0956
S127V,–,0.0625,0.0843,0.0852,–,0.059,–,–,0.0613,0.144,0.0294,0.064,0.0959,–,0.0865,–,–
S171D,0.0602,0.0665,0.0645,–,0.0511,0.0372,–,–,0.06,–,0.0655,0.0603,0.0574,0.0624,–,0.0609,0.0696
L235N,0.0686,0.0748,–,–,0.0658,0.0628,0.0673,0.087,0.0578,0.117,0.0765,0.0606,–,0.0641,–,–,0.102
L235I,0.0526,0.0557,0.0824,0.0887,–,–,–,0.0963,–,0.0797,0.0377,0.103,0.0526,–,0.0723,–,0.0918
T71H,–,0.0761,–,–,–,–,–,–,0.0526,0.166,–,–,0.0738,–,–,0.113,–
I167H,0.0558,0.0527,–,0.0472,0.0521,–,0.0409,–,–,0.07,0.0559,0.0378,–,0.0473,0.0729,–,0.0484
R50F,–,0.0544,0.0661,–,0.0631,–,–,–,0.0632,0.123,0.0271,0.103,–,0.0966,–,0.0816,0.161
F173R,0.0114,–,0.0525,–,–,–,–,–,0.067,–,–,–,0.117,0.0429,0.0622,–,0.113
H215M,0.0527,0.0599,0.056,–,0.0417,–,0.0613,–,0.0549,–,0.059,0.0599,0.0552,0.0545,–,–,0.0803
S169G,0.0523,0.0633,0.0649,0.0595,0.0545,0.0625,0.0686,–,0.0588,0.0546,0.0651,0.0556,0.061,0.0648,–,0.0763,0.067
K221C,0.0536,0.0788,0.029,0.0774,0.06,0.0613,0.0566,0.071,0.0665,0.0947,0.0628,0.0619,0.0748,0.0532,0.0725,0.0644,0.104
Q234D,0.0599,0.0675,0.0724,–,0.0792,–,0.0525,–,0.0804,0.137,0.0409,0.072,0.0825,0.0838,0.0721,0.0638,0.0859
P228C,0.0349,0.0613,0.0753,0.0865,0.0617,0.0755,0.0562,–,0.066,0.105,0.0337,0.0635,0.0768,0.075,0.0878,0.0724,0.12
V220T,0.0485,0.0637,0.0515,–,–,0.072,0.0524,–,–,0.145,–,0.0629,0.0419,–,–,–,–
C111F,–,0.0706,0.0795,0.0811,0.063,0.0663,–,–,0.0638,0.12,0.0492,0.0697,0.0807,0.0685,–,0.0736,0.125

# — the supplement of paper PMC12217912
